Measured values as given in PubChem BioAssay (Tox21).
This list was built around the results that the source calls inconclusive (neither active nor inactive); the mix of calls is not that of the screen. For part of these data: No potency is given beside an inconclusive call; the fits are too rough. Activity calls are given as the source filed them. Unless noted, the call rests on the fitted dose curve; in most records, active means well fitted curve in the direction sought with a large enough effect in the repeat runs; inconclusive means weak or mixed curves; inactive means no such curve, though single readings can be large; an effect the other way counts as inactive or inconclusive.

What was measured:
[1] = target: Estrogen receptor (Homo sapiens) (UniProt P03372); assay: qHTS assay to identify small molecule antagonists of the estrogen receptor alpha (ER-alpha) signaling pathway (AID 743069; active means well fitted curve in the direction sought with a large enough effect in the signal ratio in the repeat runs, not every such curve was filed as active; inconclusive means weak or mixed curves, or effect the other way; inactive means no such curve, though single readings can be large or run the other way; the % refers to the signal ratio; further: potency means the concentration at half of the fitted maximal effect; on activity, negative = inhibition: on the % scale 0 is the no-effect control and ±100 the full control effect); details: HEK293 ER-alpha-UAS-bla, beta-lactamase ratio, antagonist mode; activity, negative = inhibition: at 69.4 µM (top of the series) unless noted
In short: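 Compound effects are measured against 17beta-estradiol stimulation in HEK293 cells with a UAS-controlled beta-lactamase reporter for ER-alpha. Exposure lasts 18 hr at 37C; LiveBLAzer B/G FRET substrate follows for 2 hr at room temperature.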

[2] = qHTS assay to identify small molecule agonists of the TGF-beta/Smad signaling pathway (AID 1346859; active means well fitted activation curve with a large enough effect in the signal ratio in the repeat runs, not every such curve was filed as active; inconclusive means weak or mixed curves; the % refers to the signal ratio; further: potency means the concentration at half of the fitted maximal effect)
In short: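 Each well held 4,000 SBE-bla HEK 293T cells incubated overnight before compound addition; 5 hr later the cleavable FRET substrate went on for 2 hr at room temperature, and fluorescence was read at two emissions.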

[3] = target: Peroxisome proliferator-activated receptor delta (Homo sapiens) (UniProt Q03181); assay: qHTS assay to identify small molecule agonists of the peroxisome proliferator-activated receptor delta (PPARd) signaling pathway (AID 743212; calls by dose curve; further: on the % scale 0 is the no-effect control and ±100 the full control effect); details: HEK293H PPARd-UAS-bla, beta-lactamase FRET ratio, 17 h; activation: at 62.6 µM (top of the series) unless noted
In short: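 HEK293H UAS-bla reporter cells, human PPARd system; compounds delivered in DMSO after 5 h plating, then at 37 C. Beta-lactamase FRET read, 2 h RT substrate step.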

[4] = target: Peroxisome proliferator-activated receptor gamma (Homo sapiens) (UniProt P37231); assay: qHTS assay to identify small molecule agonists of the peroxisome proliferator-activated receptor gamma (PPARg) signaling pathway (AID 743094; active means well fitted activation curve with a large enough effect in the signal ratio in the repeat runs, not every such curve was filed as active; inconclusive means weak or mixed curves, or effect the other way; inactive means no such curve, though single readings can be large or run the other way; the % refers to the signal ratio; further: potency means the concentration at half of the fitted maximal effect); details: HEK293H PPARg-UAS-bla, beta-lactamase FRET ratio, 17 h; activation: at 57 µM (top of the series) unless noted
In short: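 Following 5 h plating at 37C, PPARg-bla HEK293H cells receive compound or DMSO for 17 h; fluorescence intensity is recorded after LiveBLAzer B/G loading for 1 h at room temperature.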

[5] = target: Cytochrome P450 3A4 (Homo sapiens) (UniProt P08684); assay: Cytochrome P450 Family 3 Subfamily A Member 4 (CYP3A4) small molecule antagonists: luciferase reporter qHTS assay (AID 1671201); further: potency means the concentration at half of the fitted maximal effect; nearly all actives have a fitted effect of over 50% in size
In short: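 Proluciferin-to-luciferin conversion by CYP3A4, NADPH-regenerated, 1 h RT; luminescence read as RLU. Ketoconazole as control.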

[6] = qHTS assay to identify small molecule agonists of the vitamin D receptor (VDR) signaling pathway - cell viability counter screen (AID 743224); further: nearly all actives have a fitted effect of over 50% in size; further: potency means the concentration at half of the fitted maximal effect
In short: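 Here cell health was gauged by luminescent ATP detection (CellTiter-Glo, 30 min RT) in VDR-bla cells that had been incubated with test compounds for 16 h at 37C and 5% CO2.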

[7] = qHTS assay to identify small molecule antagonists of the peroxisome proliferator-activated receptor gamma (PPARg) signaling pathway - cell viability counter screen (AID 743194); details: PPARg-bla HEK293H viability, CellTiter-Glo luminescence, 17 h, co-treated with 50 nM rosiglitazone; activity change, negative = cytotoxicity: at 62.6 µM (top of the series) unless noted; further: nearly all actives have a fitted effect of over 55% in size; further: potency means the concentration at half of the fitted maximal effect
In short: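 Viability was measured as CellTiter-Glo luminescence in GeneBLAzer PPARg UAS-bla HEK293H cells. These cells had been exposed 17 h at 37 C to compounds together with rosiglitazone at 50 nM final, with the beta-lactamase readout taken in the same wells.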

[8] = target: Peroxisome proliferator-activated receptor delta (Homo sapiens) (UniProt Q03181); assay: qHTS assay to identify small molecule antagonists of the peroxisome proliferator-activated receptor delta (PPARd) signaling pathway (AID 743215; active means well fitted inhibition curve with a large enough effect in the signal ratio in the repeat runs, not every such curve was filed as active; inconclusive means weak or mixed curves, or effect the other way; inactive means no such curve, though single readings can be large or run the other way; the % refers to the signal ratio;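 further: cells stimulated with agonist L165041 at 300 nM final during compound exposure; on the % scale 0 is the no-effect control and ±100 the full control effect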); details: HEK293H PPARd-UAS-bla, beta-lactamase FRET ratio, antagonist, 17 h; ratio activity, negative = inhibition: at 62 µM (top of the series) unless noted
In short: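 With L165041 present at 300 nM final, compounds were incubated 17 h at 37 C on PPARd UAS-bla HEK293H cells. A FRET-based beta-lactamase substrate was then applied for 2 h at room temperature and fluorescence intensity recorded.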

[9] = Human pregnane X receptor (PXR) small molecule agonists, qHTS cell viability counter screen (AID 1346977); further: on the % scale 0 is the no-effect control and ±100 the full control effect; nearly all actives have a fitted effect of over 50% in size
In short: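 Tox21 qHTS format; PXR-Luc HepG2, 2,000/well, charcoal-stripped FBS 5%. Cpd exposure 24hr. Read: CellTiter-Fluor fluorescence, multiplexed with luciferase.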

[10] = target: Estrogen receptor (Homo sapiens) (UniProt P03372); assay: qHTS assay to identify small molecule agonists of the estrogen receptor alpha (ER-alpha) signaling pathway using the BG1 cell line (AID 743079); details: BG1Luc4E2 cells, ERE-luciferase agonist, 22 h; activation: at 70.3 µM (top of the series) unless noted; further: nearly all actives have a fitted effect of over 20% in size; further: potency means the concentration at half of the fitted maximal effect
[11] = target: Voltage-gated inwardly rectifying potassium channel KCNH2 (Homo sapiens) (UniProt Q12809); assay: Human Ether-a-go-go-Related Gene (hERG) channel small molecule antagonists: fluorescence cell-based qHTS assay (AID 1671200);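 further: hERG-expressing U2OS cells given a thallium stimulus after FluxOR II dye loading; on the % scale 0 is the no-effect control and ±100 the full control effect; nearly all actives have a fitted effect of over 50% in size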
In short: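 Kinetic two-minute fluorescence traces, sampled at 1 s, were collected following thallium stimulus of U2OS cells (1000 per well) that had been cultured overnight at 37 C and loaded with FluxOR II.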

[12] = target: Nuclear receptor subfamily 1 group I member 3 (Homo sapiens) (UniProt Q14994); assay: qHTS assay to identify small molecule agonists of the constitutive androstane receptor (CAR) signaling pathway (AID 1224839); further: potency means the concentration at half of the fitted maximal effect; nearly all actives have a fitted effect of over 15% in size
In short: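 Double-stable HepG2 cells (hCAR, CYP2B6-2.2kb) seeded 4 h before compound addition. Exposure 24 h with 0.75 uM PK11195 final. Luciferase detected by ONE-Glo.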

[13] = target: Thyrotropin receptor (Homo sapiens) (UniProt P16473); assay: qHTS assay to identify small molecule agonists of the thyroid stimulating hormone receptor (TSHR) signaling pathway (AID 1224843; calls by dose curve; further: on the % scale 0 is the no-effect control and ±100 the full control effect; nearly all actives have a fitted effect of over 45% in size); details: TSHR-HEK293 cells, cAMP HTRF, agonist mode, 30 min; activation: at 92.4 µM (top of the series) unless noted
In short: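 HEK293 cells stably bearing the thyrotropin receptor were plated at 800 cells/well and challenged with compound (30 min, RT). Accumulated cAMP was quantified via cAMP-d2 competing for cryptate-tagged antibody.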

[14] = target: Progesterone receptor (Homo sapiens) (UniProt P06401); assay: qHTS assay to identify small molecule agonists of the progesterone receptor (PR) signaling pathway (AID 1346784; calls by dose curve; further: on the % scale 0 is the no-effect control and ±100 the full control effect; nearly all actives have a fitted effect of over 30% in size); details: PR-UAS-bla HEK293T, beta-lactamase FRET ratio, 16 h; activation: at 92.4 µM (top of the series) unless noted
In short: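 Compounds were tested for PR agonism in HEK 293T cells bearing a beta-lactamase gene under UAS control. Treatment lasted 16 hr at 37C; signal came from fluorescence of a FRET substrate.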

[15] = target: Thyrotropin receptor (Homo sapiens) (UniProt P16473); assay: qHTS assay to identify small molecule antagonists of the thyroid stimulating hormone receptor (TSHR) signaling pathway (AID 1259385; calls by dose curve; further: on the % scale 0 is the no-effect control and ±100 the full control effect; nearly all actives have a fitted effect of over 20% in size); details: TSHR-HEK293 cAMP HTRF, TSH-stimulated antagonist mode; activity change, negative = inhibition: at 92.4 µM (top of the series) unless noted
In short: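 Antagonist mode: compound-treated TSHR-expressing HEK293 cells were stimulated with 1.5 ng/mL TSH (final) in presence of Ro20-1724 for 30 min at RT. HTRF cAMP detection after 1 h; each compound tested at 15 concentrations, triplicate.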

[16] = qHTS assay to identify small molecule antagonists of the TGF-beta/Smad signaling pathway (AID 1346924; active means well fitted inhibition curve with a large enough effect in the signal ratio in the repeat runs, not every such curve was filed as active; inconclusive means weak or mixed curves; the % refers to the signal ratio); details: SBE-bla HEK293T, TGF-beta/Smad reporter, beta-lactamase ratio; activity, negative = inhibition: at 76.8 µM (top of the series) unless noted
In short: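 SBE-bla HEK 293T cells were plated overnight, then received compound in DMSO plus TGF-beta1 (added as a 0.25 ng/mL solution) and were incubated 5 h at 37 C. Beta-lactamase reporter activity was read after 2 h at room temperature with LiveBLAzer B/G FRET substrate (ex 405, em 460/530 nm).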

[17] = qHTS RealTime-Glo MT Cell Viability Assay in HEK293 cells - 32 hour (AID 1224868)
In short: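 HEK293 cells seeded with NanoLuc/prosubstrate reagent, rested 5 h at 37 C, then dosed and kept at 37 C up to 40 h. Nonlytic real-time luminescence from viable cells read at 0, 8, 16, 24, 32 and 40 h.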

[18] = qHTS assay to identify small molecule agonists of the peroxisome proliferator-activated receptor delta (PPARd) signaling pathway - cell viability counter screen (AID 743211); details: PPARd-bla HEK293H viability, CellTiter-Glo luminescence, 17 h; activity change, negative = cytotoxicity: at 62.6 µM (top of the series) unless noted; further: nearly all actives have a fitted effect of over 55% in size; further: potency means the concentration at half of the fitted maximal effect
In short: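 qHTS cell viability: PPARd-bla HEK293H; 17 h cpd, 37C; CellTiter-Glo, luminescence at 30 min RT.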

[19] = target: Bile acid receptor (Homo sapiens) (UniProt Q96RI1); assay: qHTS assay to identify small molecule antagonists of the farnesoid-X-receptor (FXR) signaling pathway (AID 743217; active means well fitted inhibition curve with a large enough effect in the signal ratio in the repeat runs, not every such curve was filed as active; inconclusive means weak or mixed curves, or effect the other way; inactive means no such curve, though single readings can be large or run the other way; the % refers to the signal ratio; further: on the % scale 0 is the no-effect control and ±100 the full control effect); details: HEK293T FXR-UAS-bla, beta-lactamase ratio, CDCA-stimulated, 16 h; activity change, negative = inhibition: at 62.6 µM (top of the series) unless noted
In short: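 In this cell-based antagonist screen, inhibition of CDCA-driven (50 uM final) UAS-beta-lactamase expression in HEK 293T cells was measured by FRET fluorescence following 16 h compound exposure at 37 °C.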

[20] = qHTS assay to identify small molecule agonists of H2AX (AID 1224845; active means well fitted activation curve with a large enough effect in the signal ratio in the repeat runs, not every such curve was filed as active; inconclusive means weak or mixed curves; the % refers to the signal ratio; further: potency means the concentration at half of the fitted maximal effect); details: CHO-K1 phospho-H2AX Ser139 HTRF, 3 h; activation (H2AX phosphorylation): at 154 µM (top of the series) unless noted
In short: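 Phospho-H2AX Ser139 measured by HTRF (ex 320 nm; em 665 and 620 nm) after 24 hr antibody incubation. Compounds, 15 concentrations, 0.76% DMSO, were applied to CHO-K1 cells for 3hr at 37C before lysis.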
Tags describe the fitted curve by direction and shape or compound fluorescence and quenching.

UniProt Q12809, sequence (Q12809 whole entry, looked up): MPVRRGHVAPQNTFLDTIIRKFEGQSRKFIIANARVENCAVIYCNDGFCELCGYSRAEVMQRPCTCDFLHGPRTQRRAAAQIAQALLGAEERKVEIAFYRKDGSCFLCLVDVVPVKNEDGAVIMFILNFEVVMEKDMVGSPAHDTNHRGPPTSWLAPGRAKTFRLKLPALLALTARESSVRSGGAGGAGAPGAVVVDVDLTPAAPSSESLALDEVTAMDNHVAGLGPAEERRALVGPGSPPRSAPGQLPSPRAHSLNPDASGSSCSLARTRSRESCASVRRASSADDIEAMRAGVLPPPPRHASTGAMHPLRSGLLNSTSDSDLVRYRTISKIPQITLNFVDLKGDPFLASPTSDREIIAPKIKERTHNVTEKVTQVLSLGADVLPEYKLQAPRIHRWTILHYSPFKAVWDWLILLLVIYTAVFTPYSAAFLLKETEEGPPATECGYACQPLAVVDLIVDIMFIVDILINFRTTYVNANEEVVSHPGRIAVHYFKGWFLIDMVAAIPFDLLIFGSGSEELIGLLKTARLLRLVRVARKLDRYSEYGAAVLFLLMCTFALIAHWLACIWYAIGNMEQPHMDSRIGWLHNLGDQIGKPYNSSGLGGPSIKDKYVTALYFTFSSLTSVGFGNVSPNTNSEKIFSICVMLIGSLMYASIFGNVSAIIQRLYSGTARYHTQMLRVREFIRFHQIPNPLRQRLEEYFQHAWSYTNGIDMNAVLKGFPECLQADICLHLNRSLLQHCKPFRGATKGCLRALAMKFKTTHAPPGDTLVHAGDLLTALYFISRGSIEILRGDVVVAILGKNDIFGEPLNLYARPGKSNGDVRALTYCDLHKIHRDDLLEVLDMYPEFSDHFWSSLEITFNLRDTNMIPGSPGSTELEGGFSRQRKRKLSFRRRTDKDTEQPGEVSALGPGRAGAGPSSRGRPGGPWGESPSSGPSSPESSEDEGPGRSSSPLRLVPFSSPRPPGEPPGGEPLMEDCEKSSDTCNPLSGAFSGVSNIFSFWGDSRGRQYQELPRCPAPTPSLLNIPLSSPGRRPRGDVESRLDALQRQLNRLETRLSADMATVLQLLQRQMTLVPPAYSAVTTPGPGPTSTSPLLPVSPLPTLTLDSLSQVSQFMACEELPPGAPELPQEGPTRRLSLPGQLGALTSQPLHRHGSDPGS
UniProt P08684, sequence (P08684 whole entry, looked up): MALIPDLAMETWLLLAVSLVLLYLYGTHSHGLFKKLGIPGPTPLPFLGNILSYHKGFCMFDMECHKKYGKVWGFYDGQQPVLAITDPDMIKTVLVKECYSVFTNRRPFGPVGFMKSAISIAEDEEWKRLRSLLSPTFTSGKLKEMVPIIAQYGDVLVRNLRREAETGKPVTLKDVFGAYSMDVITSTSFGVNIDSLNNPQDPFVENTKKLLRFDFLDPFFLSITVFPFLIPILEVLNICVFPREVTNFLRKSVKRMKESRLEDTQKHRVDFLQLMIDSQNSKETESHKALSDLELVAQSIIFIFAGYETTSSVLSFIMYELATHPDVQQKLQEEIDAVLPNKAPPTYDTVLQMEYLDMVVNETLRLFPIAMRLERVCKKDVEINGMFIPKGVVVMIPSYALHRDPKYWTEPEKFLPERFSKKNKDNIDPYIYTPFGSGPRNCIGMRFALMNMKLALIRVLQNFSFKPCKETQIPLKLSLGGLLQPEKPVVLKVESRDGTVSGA
UniProt P03372, sequence (P03372 whole entry, looked up): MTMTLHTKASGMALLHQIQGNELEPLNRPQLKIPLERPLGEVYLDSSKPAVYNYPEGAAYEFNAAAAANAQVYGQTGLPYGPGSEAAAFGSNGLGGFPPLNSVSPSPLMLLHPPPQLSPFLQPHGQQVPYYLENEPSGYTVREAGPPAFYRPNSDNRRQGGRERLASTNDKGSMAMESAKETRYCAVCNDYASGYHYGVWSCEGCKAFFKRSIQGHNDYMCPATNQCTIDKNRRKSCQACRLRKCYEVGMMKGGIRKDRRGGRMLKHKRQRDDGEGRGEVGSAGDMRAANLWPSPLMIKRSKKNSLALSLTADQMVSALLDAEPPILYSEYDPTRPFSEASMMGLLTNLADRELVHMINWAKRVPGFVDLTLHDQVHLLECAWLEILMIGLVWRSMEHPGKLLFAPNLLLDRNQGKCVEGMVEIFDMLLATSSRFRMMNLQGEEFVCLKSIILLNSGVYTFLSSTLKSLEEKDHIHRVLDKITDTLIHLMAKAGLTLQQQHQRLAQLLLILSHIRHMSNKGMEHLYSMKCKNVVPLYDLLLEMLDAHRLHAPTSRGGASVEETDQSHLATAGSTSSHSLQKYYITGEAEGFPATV
UniProt Q03181, sequence (Q03181 whole entry, looked up): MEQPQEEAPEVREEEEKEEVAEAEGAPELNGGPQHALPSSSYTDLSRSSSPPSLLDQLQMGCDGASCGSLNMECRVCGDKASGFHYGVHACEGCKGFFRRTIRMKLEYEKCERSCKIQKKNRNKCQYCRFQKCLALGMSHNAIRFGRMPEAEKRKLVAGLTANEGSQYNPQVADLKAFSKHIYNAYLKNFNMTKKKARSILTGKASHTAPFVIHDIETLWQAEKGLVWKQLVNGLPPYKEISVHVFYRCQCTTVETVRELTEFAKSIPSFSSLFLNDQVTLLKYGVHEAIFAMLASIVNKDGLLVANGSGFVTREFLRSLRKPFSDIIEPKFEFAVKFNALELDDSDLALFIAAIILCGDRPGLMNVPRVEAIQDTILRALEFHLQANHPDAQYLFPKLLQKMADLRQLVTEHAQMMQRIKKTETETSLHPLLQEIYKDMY
UniProt P16473, sequence (P16473 whole entry, looked up): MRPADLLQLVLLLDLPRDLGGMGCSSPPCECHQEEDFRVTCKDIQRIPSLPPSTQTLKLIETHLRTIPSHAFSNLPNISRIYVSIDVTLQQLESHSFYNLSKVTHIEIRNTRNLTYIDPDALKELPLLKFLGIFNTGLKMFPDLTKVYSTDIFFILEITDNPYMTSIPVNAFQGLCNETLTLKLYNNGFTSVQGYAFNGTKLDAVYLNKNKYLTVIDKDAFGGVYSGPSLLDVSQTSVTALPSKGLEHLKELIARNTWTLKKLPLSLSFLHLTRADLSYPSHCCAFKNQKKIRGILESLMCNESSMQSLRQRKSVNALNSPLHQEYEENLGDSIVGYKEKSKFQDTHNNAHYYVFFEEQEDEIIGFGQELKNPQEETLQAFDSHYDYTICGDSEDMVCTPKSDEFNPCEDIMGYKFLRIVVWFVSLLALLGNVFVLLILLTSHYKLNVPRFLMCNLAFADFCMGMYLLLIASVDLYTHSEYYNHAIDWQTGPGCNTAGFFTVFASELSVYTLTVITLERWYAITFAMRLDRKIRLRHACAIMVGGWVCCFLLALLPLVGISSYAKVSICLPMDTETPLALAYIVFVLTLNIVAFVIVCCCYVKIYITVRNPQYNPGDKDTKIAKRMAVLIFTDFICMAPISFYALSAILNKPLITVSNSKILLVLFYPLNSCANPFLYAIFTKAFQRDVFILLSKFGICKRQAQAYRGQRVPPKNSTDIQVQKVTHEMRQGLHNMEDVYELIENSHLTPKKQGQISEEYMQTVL
UniProt P37231, sequence (P37231 whole entry, looked up): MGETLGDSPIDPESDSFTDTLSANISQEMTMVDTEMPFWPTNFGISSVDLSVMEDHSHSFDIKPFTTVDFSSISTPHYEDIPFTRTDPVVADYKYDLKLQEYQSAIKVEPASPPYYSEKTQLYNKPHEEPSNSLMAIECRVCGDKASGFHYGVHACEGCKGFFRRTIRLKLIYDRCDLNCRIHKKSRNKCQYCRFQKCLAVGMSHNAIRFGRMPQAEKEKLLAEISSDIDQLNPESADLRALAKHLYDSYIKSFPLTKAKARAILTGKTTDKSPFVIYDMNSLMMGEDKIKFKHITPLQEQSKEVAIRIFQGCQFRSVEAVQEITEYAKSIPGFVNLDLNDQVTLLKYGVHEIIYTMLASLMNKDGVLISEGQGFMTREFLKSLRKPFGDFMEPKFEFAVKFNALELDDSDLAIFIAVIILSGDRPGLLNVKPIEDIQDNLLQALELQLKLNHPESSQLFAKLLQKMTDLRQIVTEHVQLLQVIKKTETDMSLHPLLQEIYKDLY
UniProt Q96RI1, sequence (Q96RI1 whole entry, looked up): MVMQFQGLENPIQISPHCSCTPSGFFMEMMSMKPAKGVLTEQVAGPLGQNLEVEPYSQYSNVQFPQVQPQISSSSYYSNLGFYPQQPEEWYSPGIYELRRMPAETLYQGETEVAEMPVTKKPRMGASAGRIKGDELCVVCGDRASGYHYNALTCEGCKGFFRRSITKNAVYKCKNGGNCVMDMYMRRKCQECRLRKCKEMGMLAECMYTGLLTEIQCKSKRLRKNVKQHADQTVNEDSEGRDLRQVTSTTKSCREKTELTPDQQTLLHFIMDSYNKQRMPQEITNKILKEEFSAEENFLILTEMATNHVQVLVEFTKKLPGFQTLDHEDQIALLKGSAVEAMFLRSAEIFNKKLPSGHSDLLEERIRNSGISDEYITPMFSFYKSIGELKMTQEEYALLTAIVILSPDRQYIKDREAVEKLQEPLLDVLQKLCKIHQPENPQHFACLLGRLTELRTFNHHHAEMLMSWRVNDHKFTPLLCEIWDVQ
UniProt Q14994, sequence (Q14994 whole entry, looked up): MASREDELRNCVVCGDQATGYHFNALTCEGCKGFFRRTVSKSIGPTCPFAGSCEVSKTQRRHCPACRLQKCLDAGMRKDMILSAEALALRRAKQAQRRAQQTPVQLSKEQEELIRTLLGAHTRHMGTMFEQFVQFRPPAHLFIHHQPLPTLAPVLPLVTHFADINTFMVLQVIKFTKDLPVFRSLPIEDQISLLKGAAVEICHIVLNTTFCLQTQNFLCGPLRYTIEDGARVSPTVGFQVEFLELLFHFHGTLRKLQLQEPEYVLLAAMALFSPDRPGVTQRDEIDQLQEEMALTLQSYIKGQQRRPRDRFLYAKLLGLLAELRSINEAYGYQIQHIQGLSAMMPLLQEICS

SMILES: CC(=O)OCc1ccccc1
- Potency [1]: inactive
- Potency [2]: inactive

SMILES: CCC[Si](OC)(OC)OC
- Potency [3]: inactive

SMILES: C=C(C)C(=O)OCCN(C)C
- Potency [4]: inactive
- Potency [5]: active: 36 µM

SMILES: CCCOC(OCCC)OCCC
- Potency [6]: inactive

SMILES: CC(C)(O)C(=O)c1ccc(OCCO)cc1
- Potency [7]: inconclusive [cytotoxic, full curve, poor fit]
- ratio activity, negative = inhibition [8]: inconclusive: 4.91%
- Potency [9]: inactive

SMILES: C=C(C)C(=O)OCCCCCCCCCCCCCCCCCC
- Potency [10]: inconclusive [activator, partial curve, poor fit]
- Potency [4]: inactive
- Potency [3]: inactive
- activity change, negative = inhibition [11]: inactive: -0.193% [at 15.8 µM]

SMILES: CC(O)C(C)O (stereo not given)
- Potency [6]: inconclusive [cytotoxic, single point]

SMILES: O=c1c2ccccc2nnn1CCl
- Potency [7]: inconclusive [rising, single point]
- Potency [12]: inconclusive [activator, single point]
- Potency [13]: inactive
- Potency [14]: inactive

SMILES: CC/C=C\CCOC(=O)CC
- Potency [7]: inactive
- Potency [15]: inactive
- Potency [11]: inactive

SMILES: C[C@H]1C[C@H]2[C@@H]3CCC4=CC(=O)C=C[C@]4(C)[C@@]3(F)[C@@H](O)C[C@]2(C)[C@@]1(O)C(=O)COP(=O)(O)O
- Potency [3]: inactive
- Potency [9]: inactive

SMILES: CCOC(=O)OCC
- activity, negative = inhibition [16]: inconclusive: 11.2%
- Potency [5]: inconclusive [inhibitor, partial curve]

SMILES: C1=Cc2ccccc2C1
- Potency [10]: inconclusive [activator, single point]
- Potency [4]: inactive
- Potency [12]: inconclusive [activator]

SMILES: CCCCNc1ccccc1
- Potency [10]: inactive

SMILES: CCC1C(=O)OCC1Cc1cncn1C (stereo not given)
- activation [3]: inconclusive: 2.58%

SMILES: COc1ccc2nc(SCc3ncc(C)c(OC)c3C)[nH]c2c1
- Potency [6]: inactive
- Potency [12]: inconclusive [activator, single point]
- Potency [17]: inconclusive [cytotoxic, partial curve]

SMILES: CCCCCCCCC(=O)OCC
- Potency [18]: inactive

SMILES: CCCC1CCCC(=O)O1 (stereo not given)
- Potency [1]: inactive
- Potency [4]: inconclusive [activator, partial curve]
- Potency [18]: inconclusive [cytotoxic, full curve]
- activation [3]: inconclusive: 6.36%
- Potency [2]: inconclusive [rising, partial curve]
- activity, negative = inhibition [16]: inconclusive: 8.73%
- Potency [5]: active: 39.9 µM

SMILES: C[Si](C)=O
- activity change, negative = inhibition [19]: inactive: 6.53% [at 5.95 µM]

SMILES: CCOC(=O)C(=O)CCCCCCl
- activity change, negative = inhibition [19]: inconclusive: 10.6%

SMILES: CCc1occc(=O)c1O
- Potency [1]: inconclusive [activator, partial curve, poor fit]
- Potency [18]: inactive
- Potency [19]: inactive
- activity, negative = inhibition [16]: inconclusive: -0.476%

SMILES: O=S(=O)(O)c1cc(O)c2ccc(Nc3ccccc3)cc2c1
- Potency [10]: inconclusive [inhibitor, full curve]
- Potency [4]: inactive
- Potency [20]: inconclusive [cytotoxic, full curve]
- Potency [2]: inactive

SMILES: CCOC(=O)C(=O)OCC
- Potency [7]: inactive
- Potency [18]: inactive

SMILES: COc1ccc(/C(C)=C/C(=O)O)c(OC)c1
- Potency [2]: inactive

SMILES: C=C[Si](C)(C)O[Si](C)(C)C=C
- Potency [6]: inactive
- Potency [15]: inactive

SMILES: O=C1CCCCO1
- Potency [8]: inactive
- Potency [6]: inactive

SMILES: CCCCNCCCC
- Potency [11]: inactive

SMILES: CC/C=C\CC/C=C/C(OCC)OCC
- Potency [13]: inactive
